According to the RNAGym collection of RNA variant scans (doi:10.7554/elife.90254):
Read counts are not given, so values of variants with three or more changes are uncertain.

B1: OR4K15 (parent)
chain: GUUAACGGUCAUAGGCCAUGGAAACUAGGAGCACCAUUUCGCUGCCAGUGAAGAAAUGAACAAAGAAAAUCUGGGCCAGGCAGGCAUCAAAAGAAAUAGUCUUGCGCUCAACCAGAAAGUCUGUAAUCAUUUUAAGGGUA

Variants of: B1
Assay: self-cleavage, relative activity (ratio to wild type); higher = more cleavage; in vitro, sequencing; the parent is a self-cleaving ribozyme

Row | Variant | self-cleavage
1 | GUUAACGGUCGUAGGCCAUGGAAACUAGGAGCACCAUUUCGCUGCCAGUGUAGAAAUGAACAAAGAAAAUCCGGGCCAGGCAGGCAUCAAAAGAAAUAGUCUUGCGCUCAACCAGAAAGUCUGUAAUCAUCUUAAGGGUA [A11G A51U U72C U131C] | 0.21
2 | GUUAACGGUCGUAGGCCAUGGAAACUAGGAGCGCCAUUUCGCUGCCAGUGAGGAAAUGAACAAAGAAAAUCUGGGCCAGGCGGGCAUCAAAAGAAAUAGUCUUGCGCUCAACCAGAAAGUCUGUAAUCAUUUUAAGGGUA [A11G A33G A52G A82G] | 0.32
3 | GUUAACGGUCGUAGGCCAUGGAAACUAGGAGCACCAUUUCGCUGCCAGUGAGGAAAUGAACAAAGAAAAUCUGGGCCAGGCAGGCAUCAAAAGAAAUAGUCUUGCGCACAACCAGAAAGUCUGUAAUCAUCUUAAGGGUA [A11G A52G U108A U131C] | 0.02
4 | GUUAACGGUCGUAGGCCAUGGAAACUAGGAGCACCAUUUCGCUGCCAGUGAAGGAAUGAACAGAGAAAAUCUGGGCCAGGCAGGCAUCAAAAGAAAUAGUCUUGCGCUCAACCAGAAAGUCUGUAAUCAUUUUAAGGGUA [A11G A54G A63G] | 0.88
5 | GUUAACGGUCGUAGGCCAUGGAAACUAGGGGCACCAUUUCGCUGCCAGUGAAGAAAUGAACAAAGAAAAUCUGGGCCAGGCAGGCAUCAAAAGAAAUAGUCUUGCGCUCAACCAGUAAGUCUGUAAUCAUUUUAAGGGUA [A11G A30G A116U] | 0.67
6 | GUUAACGGUCGUAGGCCAUGGAAACUAGGAGCGCCAUUUCGCUGCCAGUGAAGAAAUGAACAAAGAAAAUCUGGGCCAGGCAGGCAUCAAGAGAAAUAGUCUUGCGCUCAACCAGAAAGUCUGUAAUCAUUUUAAGGGUA [A11G A33G A91G] | 0.62
7 | GUUAACGGUCGUAGGCCAUGGAAACUAGGAGCGCCAUUCCGCUGCCAGUGAAGAAAUGAACAAAGAAAAUCUGGGCCAGGCAGGCAUCAAAAGAAAUAGUCUUGCGCUCAACCAGAAAGUCUGUAAUCACUUUAAGGGUA [A11G A33G U39C U130C] | 0.63
8 | GUUAACGGUCGUAGGCCAUGGAAACUAGGAGCACCAUUUCGCUGCCGGUGAAGAAAUGAACAAAGAAAGUCUGGGCCAGGCAGGCAUCAAAAGAAAUAGUCUUGCGCUCAACCAGAAAGUCUGUAAUCAUUUUAAGGGUA [A11G A47G A69G] | 1.72
9 | GUUAACGGUCGUAGGCCAUGGAAACUAGGAGCACCGUUUCGCUGCCAGUGAAGAAAUGAACAAAGAAAAUCUGGGCCAGGCAGGCAUCAAAAGAAAUAGUCUUGCGCUCAACCAGAAAGUCUGUAAGCAUUUUAAGGGUA [A11G A36G U127G] | 0.99
10 | GUUAACGGUCGUAGGCCAUGGAAACUAGGAGCACCAUUUCGCUGCCAGUGAUGAAAUGAACAAAGAAAAUCUGGGCCAGGCAGGCAUCGAAAGAAAUAGUCUUGCGCUCAACCAGAAAGUCUGUAAUCAUUUUAAGGGUA [A11G A52U A89G] | 1.22
11 | GUUAACGGUCGUAGGCCAUGGAAACUAGGAGCACCAUUUCGCUGCCAGUGAAGGAAUGAACAAAGAAAAUCUGGACCAGGCAGGCAUCAAAAGAAAUAGUCUUGCGCUCAACCAGUAAGUCUGUAAUCAUUUUAAGGGUA [A11G A54G G75A A116U] | 0.01
12 | GUUAACGGUCGUAGGCCAUGGAAGCUAGGAGCACCAUUUCGCUGCCAGUGAAGAAAUGAACAAAGAAAAUCUGGGCCAGGCAGGCAUCAAAAGAAAUAGCCUUGCGCUCAACCAGAAGGUCUGUAAUCACUUUAAGGGUA [A11G A24G U100C A118G U130C] | 1.3
13 | GUUAACGGUCGUAGGCCAUGGAAACUAGGAGCGCCAUUUCGCUGCCAGUGAAGAAAUGAACAAAGAAAAUCUGGGCCAGGCAGGCAUCAAAAGAAACAGUCUUGCGCUCAACCAGAAAGUCUGUAAUCAUUUUAAGGGUA [A11G A33G U97C] | 0.63
14 | GUUAACGGUCGUAGGCCAUGGAAACUAGGAGCACCAUUUCGCUGCCUGUGAAGGAAUGAACAAAGAAAAUCUGGGCCAGGCAGGCGUCAAAAGAAAUAGUCUUGCGCUCAACCAGAAGGUCUGUAAUCAUUUUAAGGGUA [A11G A47U A54G A86G A118G] | 0.18
15 | GUUAACGGUCGUAGGCCAUGGAAACUAGGAGCGCCAUUUCGCUGCCAGUGGAGAAAUGAUCAAAGAAAAUCUGGGCCAGGCAGGCAUCAAAAGAAAUAGUCUUGCGCUCAACCAGAAAGUCUGUAAUCAUUCUAAGGGUA [A11G A33G A51G A60U U132C] | 0.41
16 | GUUAACGGUCGUAGGCCAUGGAAACUAGGAGCACCAUUUCGCUGCCCGUGAAGAAAUGAACAAAGAAAAUCUGGGCCAGGCAGGCACCAGAAGAAAUAGUCCUGCGCUCAACCAGAAAGUCCGUAAUCAUUUUAAGGGUA [A11G A47C U87C A90G U102C U122C] | 0.12
17 | GUUAACGGUCGUAGGCCAUGGAAACUAGGAGCGCCAUUUCGCUGCCAGUGAAGAAAUGAACAAAGAAAAUCUGGGCCAGGCAGGCAUCAAAAGAAAUAGUCUUGCGCUCAACCAGAAGGUCUGUAAUCAUUUUAAGGGCA [A11G A33G A118G U139C] | 0.53
18 | GUUAACGGUCGUAGGCCAUGGAAACUAGGAGCGCCAUUUCGCUGCCAGAGAAGAAAUGAACAAAGAAAAUCUGGGCCAGGCAGGCAUCAAAAGAAAUAGUCUUGCGCUCAACCAGAAAGUCUGUAAUCAUUUUAAGGGUA [A11G A33G U49A] | 0.39
19 | GUUAACGGUCGUAGGCCAUGGAAGCUAGGAGCACCAUUUCGCUGCCAGUGAAGAGAUGAACAAAGAAAAUCUGGGCCAGGCAGGCAUCAAAAGAAAUAGUCUUGCGCUCAACCAGAAAGUCAGUAAUCAUUUUAAGGGUA [A11G A24G A55G U122A] | 0.9
20 | GUUAACGGUCGUAGGCCAUGGAAACUAGGAGCACCAUUUCGCUGCCAGUGGAGAAAUGAACAAAGAAAAUCUGGGCCAGGCAGGCAUCAAAAGAAAUAGUCUUGCGCCCAACCAGAAAGUCUGUAAUCAUUUUAAGGGUA [A11G A51G U108C] | 0.08
21 | GUUAACGGUCGUAGGCCAUGGAAGCUAGGAGCACCAUUUCGCUGCCGGUGAAGAAAUGAACAAAGAAAAUCUGGGCCAGGCAGGCAUCAAAAGAAAUAGUCUUGCGCUCAACCAGAAAGUCUGUAAUCAUUUUAAGGGUA [A11G A24G A47G] | 0.43
